Each structure is given as a SMILES string. The list shows a part of the results. Single values are uncertain, as repeats are few or missing.
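Further: cells treated in 1,536-well plates, then fixed and DAPI-stained, with nuclei counted from automated high-throughput microscope images.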

The test deals with IST-MEL1. The experiment in a line: cell count relative to DMSO control; melanoma cells; higher = more viable cells. To be noted: library dose: standard library concentration; 72 h.
On to `CC(=O)O[C@@]12CO[C@@H]1C[C@H](O)[C@@]1(C)C(=O)[C@H](O)C3=C(C)[C@@H](OC(=O)[C@H](O)[C@@H](NC(=O)OC(C)(C)C)c4ccccc4)C[C@@](O)([C@@H](OC(=O)c4ccccc4)[C@H]21)C3(C)C` [Docetaxel] + c1cc(-c2cnn3cc(-c4ccc(OCCN5CCCCC5)cc4)cnc23)ccn1 [Dorsomorphin] (first compound 0.0005 µM, partner dose 2 µM), for which the cell count came out at 44%.

With `Nc1ncn([C@H]2C[C@H](O)[C@@H](CO)O2)c(=O)n1` [decitabine] + COC(=O)c1sccc1S(=O)(=O)Nc1ccc(Nc2ccccc2)cc1OC [GSK0660] (first compound 0.5 µM, partner dose 5 µM), the cell count was 84.7%.

Molecule `CO[C@H]1C[C@@H]2CC[C@@H](C)[C@@](O)(O2)C(=O)C(=O)N2CCCC[C@H]2C(=O)O[C@H]([C@H](C)C[C@@H]2CC[C@@H](OCCO)[C@H](OC)C2)CC(=O)[C@H](C)/C=C(\C)[C@@H](O)[C@@H](OC)C(=O)[C@H](C)C[C@H](C)/C=C/C=C/C=C/1C` [everolimus] + Clc1ccc(Nc2nnc(Cc3ccncc3)c3ccccc23)cc1 [vatalanib] (first compound 0.1 µM, partner dose 10 µM) displayed a cell count of 68.3%.

The molecule `Nc1ccn([C@@H]2O[C@H](CO)[C@@H](O)C2(F)F)c(=O)n1` [gemcitabine] + OCc1c[nH]c2ccccc12 [Indole-3-carbinol] (first compound 0.002 µM, partner dose 4 µM) registered a cell count of 42.9%.

Molecule `Nc1ncn([C@H]2C[C@H](O)[C@@H](CO)O2)c(=O)n1` [decitabine] + O=C(Nc1ccccc1)c1cc([N+](=O)[O-])ccc1Cl [GW9662] (first compound 0.5 µM, partner dose 10 µM) came in with a cell count of 75.3%.

`Nc1ccn([C@@H]2O[C@H](CO)[C@@H](O)C2(F)F)c(=O)n1` [gemcitabine] + NC(=O)Nc1cc(-c2cccc(F)c2)sc1C(=O)N[C@H]1CCCNC1 [AZD7762] (first compound 0.002 µM, partner dose 0.1 µM) came in with a cell count of 25.3%.

As to `Nc1nc(F)nc2c1ncn2[C@@H]1O[C@H](CO)[C@@H](O)[C@@H]1O` [fludarabine] + O=c1cc(-c2cccc3c2Sc2ccccc2S3)oc(N2CCOCC2)c1 [KU55933] (first compound 1 µM, partner dose 5 µM), the cell count was determined as 83.6%.

Turning to `CC(=O)O[C@@]12CO[C@@H]1C[C@H](O)[C@@]1(C)C(=O)[C@H](O)C3=C(C)[C@@H](OC(=O)[C@H](O)[C@@H](NC(=O)OC(C)(C)C)c4ccccc4)C[C@@](O)([C@@H](OC(=O)c4ccccc4)[C@H]21)C3(C)C` [Docetaxel] + CO[C@H]1C[C@@H]2CC[C@@H](C)[C@@](O)(O2)C(=O)C(=O)N2CCCC[C@H]2C(=O)O[C@H]([C@H](C)C[C@@H]2CC[C@@H](OCCO)[C@H](OC)C2)CC(=O)[C@H](C)/C=C(\C)[C@@H](O)[C@@H](OC)C(=O)[C@H](C)C[C@H](C)/C=C/C=C/C=C/1C [everolimus] (first compound 0.0005 µM, partner dose 0.1 µM), the cell count stood at 31.3%.

In the case of `CC(=O)O[C@@]12CO[C@@H]1C[C@H](O)[C@@]1(C)C(=O)[C@H](O)C3=C(C)[C@@H](OC(=O)[C@H](O)[C@@H](NC(=O)OC(C)(C)C)c4ccccc4)C[C@@](O)([C@@H](OC(=O)c4ccccc4)[C@H]21)C3(C)C` [Docetaxel] + O=C(CCCCCCC(=O)Nc1ccccc1)NO [vorinostat] (first compound 0.0005 µM, partner dose 0.4 µM), the cell count was determined as 43.6%.

As to `Nc1ccn([C@@H]2O[C@H](CO)[C@@H](O)C2(F)F)c(=O)n1` [gemcitabine] + c1cc(-c2cnn3cc(-c4ccc(OCCN5CCCCC5)cc4)cnc23)ccn1 [Dorsomorphin] (first compound 0.002 µM, partner dose 2 µM), the cell count came out at 50.6%.

For the origin of these results see the supplement of paper PMC4604168 (melanoma cell lines).
